Measurements: PubChem BioAssay AID686971 (National Center for Advancing Translational Sciences (NCATS), 2013)
Among all 360,000 compounds or so, about 7,500 (2.1%) were called active. Inconclusive results, whose numbers are uncertain, are shown with a selection of clear calls. The call rests on the fitted dose curve; in most records, active means well fitted cell-killing curve with a large enough effect; inconclusive means small, poorly fitted or top-dose-only effect, or effect the other way, or another doubt; inactive means no such curve, though single readings can be large or run the other way. Potencies of inconclusive entries are left out as doubtful fits.

assay: qHTS for induction of synthetic lethality in tumor cells producing 2HG: qHTS for the HT-1080-IDH1KD cell line; details: HT-1080 IDH1 knockdown viability, ATP luminescence, 48 h; activity, negative = toxicity: at 46.1 µM (top of the series) unless noted;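 on activity, negative = toxicity: 0% = DMSO wells and -100% = cell-free medium wells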
Procedure, shortened: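 After a 2 h attachment period, IDH1KD HT-1080 cells took pin-transferred compound for 48 h at 37 °C; ATP-based luminescence after 10 min room-temperature reagent incubation reported viability.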
Potency means the concentration at half of the fitted maximal effect; tags describe the fitted curve by direction and shape.

SMILES | Potency | activity, negative = toxicity
O=C(NC(=S)Nc1ccc(S(=O)(=O)NC2CCCCC2)cc1)c1cccs1 | inconclusive [cytotoxic, partial curve] | 
CCOC(=O)C1CCN(CCCSc2ccccc2)CC1 |  | inactive: 1.42%
COc1ccc(CNCc2cn(-c3cccc(F)c3)nc2-c2ccc(C)o2)cc1 | inconclusive [cytotoxic, single point] | 
CCCCC(=O)Nc1ccc(C(=O)Nc2ccc(S(=O)(=O)N3CCCC3)cc2)cc1 | inconclusive [cytotoxic, single point] | 
Cc1cccc(-c2ccc3[nH]c4c(c3c2)CCN2C[C@@H]([C@H](C)OC(=O)Nc3ccccc3C)[C@@H](N(C)C(=O)Nc3ccccc3C)C[C@@H]42)c1 | inconclusive [cytotoxic, single point] | 
Cc1ccc(/C=C/c2ccc(N(C)C)cc2)[n+](C)c1 | inconclusive [cytotoxic, partial curve] | 
Cc1cc(-c2ccccc2)nc2cc(C(=O)N(Cc3ccccc3)Cc3ccccc3)nn12 | active: 16.4 µM | 
C=CCN1C(=O)C(O)(CC(=O)c2ccco2)c2cc(Br)ccc21 (stereo unspecified) | inconclusive [cytotoxic, single point] | 
Cc1cc(C)nc(SCNC(=O)c2ccccc2)n1 | active: 7.08 µM | 
CCOC(=O)c1c(C)nc2sc(C(=O)Nc3ccc(C(C)=O)cc3)c(N)c2c1-c1ccc(OC)cc1 | inconclusive [cytotoxic, partial curve] | 
CSc1nc(-c2ccccc2)nc(C(Cl)Cl)n1 | active: 18.4 µM | 
Cc1cccc(NC(=O)c2nc[nH]c2C(=O)NCCN(CCNC(=O)c2[nH]cnc2C(=O)Nc2cccc(C)c2)CCNC(=O)c2[nH]cnc2C(=O)Nc2cccc(C)c2)c1 |  | inactive: 9.27%
O=C(COC(=O)Cc1ccsc1)Nc1ccc(Cl)cn1 |  | inactive: -2.27%
COc1ccc(CCNC(=O)c2ccc(CNc3nc(=S)[nH]c4ccccc34)cc2)cc1OC |  | inactive: -12.8%
N#CCCN(Cc1cccnc1)S(=O)(=O)c1ccc2ccccc2c1 |  | inactive: 1.31%
Cc1ccc(Cl)cc1-c1cc(C(=O)Nc2ccc(F)cc2)[nH]n1 | inconclusive [cytotoxic, single point] | 
CCOC(=O)c1c(-c2ccccc2)oc2cc(CN(C)C)c(O)c(CN(C)C)c12 | active: 11.2 µM | 
O=c1[nH]c(SCc2cccc([N+](=O)[O-])c2)nc2[nH]ncc12 | inconclusive [cytotoxic, single point] | 
CCCC[C@@H]1C[C@H]1[C@@H](NC(=O)c1cccs1)c1ccc(Cl)cc1 | inconclusive [cytotoxic, single point] | 
CCOC(=O)c1cc(NC(=O)Nc2ccccc2Cl)c(C)nc1C | inconclusive [rising, single point] | 
CN(C)S(=O)(=O)c1cccc(C(=O)Nc2ccccc2C(=O)NC2CC2)c1 |  | inactive: -2.86%
COc1ccc(S(=O)(=O)Nc2cccc3ccc(O)cc23)cc1 | active: 5.17 µM | 
Cc1nn(-c2ccccc2)c(C)c1NC(=O)COC(=O)c1ccc(Cl)c(S(N)(=O)=O)c1 |  | inactive: -4.76%

SMILES | Potency | activity, negative = toxicity
CCOC(=O)C1=C(COC(=O)/C=C/c2cccc(OC)c2)NC(=O)NC1C (stereo unspecified) |  | inconclusive: 31.9%
Cn1nccc1C(=O)N1CCCC(C(=O)c2cccc3ccccc23)C1 (stereo unspecified) |  | inactive: -9.6%
N#CCSc1nnc(COc2cccc3ccccc23)n1-c1ccccc1 | inconclusive [cytotoxic, single point] | 
CCNC(=O)c1ccc(NC(=O)CC2SC(N3CCCC3)=NC2=O)cc1 (stereo unspecified) |  | inactive: 1.09%
CCN(c1ccc(NS(=O)(=O)c2cc(Cl)ccc2Cl)cc1)C(C)C | inconclusive [cytotoxic, single point] | 
CCN(CC)C(=S)Sc1c(-c2ccccc2)c2cc(Cl)ccc2[nH]c1=O | inconclusive [cytotoxic, single point] | 
CCOc1cc(CO)cc(Br)c1OCC(N)=O |  | inactive: 1.48%
Cc1nn(Cc2ccccc2)c(C)c1NC(=O)c1cc(-c2cccs2)on1 | inconclusive [cytotoxic, single point] | 
O=C(CC12CC3CC(CC(C3)C1)C2)NC1CC1 |  | inactive: -2.09%
CC(=O)N1CCc2c(sc(NC(=O)c3ccc([N+](=O)[O-])o3)c2C(N)=O)C1 | active: 5.8 µM | 
COc1cccc(NC(=O)C2(C)CCN2Cc2cccc(OC)c2F)c1 (stereo unspecified) | inconclusive [cytotoxic, single point] | 
O=C(Nc1ccc(Cl)cc1)N1CCCN(Cc2ccc(F)cc2)C1 | inconclusive [cytotoxic, single point] | 
NC(N)=N/N=C/c1ccc(OCc2ccc(Cl)cc2Cl)cc1 | inconclusive [cytotoxic, single point] | 
Cn1cc(C(=O)c2ccc(Cl)cc2Cl)cc1C(=O)N/N=C(\N)COc1ccc(Cl)cc1Cl | inconclusive [cytotoxic, single point] | 
Cc1cc(OCC(=O)OCC(=O)NCC2CCCO2)ccc1Cl (stereo unspecified) |  | inactive: 5.47%
Cc1cccc(NS(=O)(=O)c2ccc(NC(=O)CN(c3cc([N+](=O)[O-])ccc3C)S(C)(=O)=O)cc2)c1 | inconclusive [cytotoxic, single point] | 
COc1ccc(C2=CC(=O)CC(c3ccc(OC)cc3)C2)cc1 (stereo unspecified) |  | inactive: 6.56%
O=C(Nc1ccccn1)Nc1ccccc1[N+](=O)[O-] |  | inactive: -0.669%
CCOC(=O)C(C)Oc1cccc2c(=O)n(CC(=O)NCc3ccc(F)cc3)ccc12 (stereo unspecified) | active: 0.58 µM | 
COc1cccc(NC(C)=[N+](C)CCNS(=O)(=O)c2ccc(Cl)cc2)c1 |  | inconclusive: -30.5% [cytotoxic]
O=C(CN1C(=O)c2cccc3cccc1c23)N1CCN(c2ccccc2)CC1 | inconclusive [cytotoxic, partial curve] | 
Brc1cc(Br)c2ncnc(N3CCCCC3)c2c1 | inconclusive [cytotoxic, single point] | 
Cc1cc(N2CCN(c3ccc([N+](=O)[O-])c4cccnc34)CC2)c2ccccc2n1 |  | inconclusive: -10.1% [cytotoxic]
